The source of these data is publication PMC10726135.

This is one part of the list. At the low end of the ranking, values are background and their order means little. Measured with an extract: partners may take part in the binding.

The target in this assay is T1, HNF4alpha2 (COS-7 nuclear extract) (UniProt P41235).
T1 sequence: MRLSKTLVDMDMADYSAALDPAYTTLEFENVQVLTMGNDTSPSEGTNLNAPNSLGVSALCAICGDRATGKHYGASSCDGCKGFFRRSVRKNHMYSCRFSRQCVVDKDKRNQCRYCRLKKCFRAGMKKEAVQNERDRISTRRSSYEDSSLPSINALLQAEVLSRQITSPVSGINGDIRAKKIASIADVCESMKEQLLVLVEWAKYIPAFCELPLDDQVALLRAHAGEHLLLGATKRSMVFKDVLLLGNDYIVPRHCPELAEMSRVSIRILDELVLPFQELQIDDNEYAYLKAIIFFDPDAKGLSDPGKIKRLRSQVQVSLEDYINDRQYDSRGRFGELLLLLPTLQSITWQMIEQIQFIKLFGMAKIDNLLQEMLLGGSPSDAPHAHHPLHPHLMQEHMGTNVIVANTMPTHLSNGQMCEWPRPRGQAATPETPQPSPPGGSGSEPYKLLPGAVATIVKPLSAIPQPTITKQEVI
Description: protein-binding microarray. The settings on record: COS-7 nuclear extract on double-stranded Agilent 4x180k PBM; binding buffer, salt, pH and temperature not given; high values mean tight binding; double strand, one strand shown; sequences stand for … in …GCCTAGGGAGATTAGAGTATCGGTCGA
As to GCCTGCGGGGTCAGGCCGTGGTGTATGATG, the binding signal (log2 normalized intensity) is 1.73.
As to CTGCCTTGGAGGCACTCCCAGGATAATGGA, the binding signal (log2 normalized intensity) was -0.971.
The value for AATGCAGCAGCATTGGACCCTCCCAGCCAA was 3.94.
The value for GAAAAAGCTGACGCCCCACCCCCTCCACCC was 6.44.
Under GCTGGACTTTCATCTGAGTCTCAGCAATTA stands 1.1; under TTTGTTTTTACAGACAGGCATGACAGAGTG, 1.68; under TGAGCTGTGGTTAAGACTCAAAGTTCAGTC, 2.94.
Regarding CTAATGGTACCATCTGCCACTCATAGAACT, the binding signal (log2 normalized intensity) was -1.12.
The value for GGAGCTGAAACTATAAACTTGGTTACAGGA was -1.09.
Consider AGTAAAGGTCGTTCTATCGGAGAACGTTCC, for which the binding signal (log2 normalized intensity) is 0.386.
The value for TCATCAGTGCCATTCATTAGTCCTGGTTTT was 1.66; that for ATATTGACTGCCCCAACGCCTCCTTTCATC was 2.66; that for TTAGAAGGCTCCCTGCTGCGGAGAGTTCCC was -1.
Take GGAAAGGGAACTCCCTGACCCCTAGCACTT: the binding signal (log2 normalized intensity) came to 3.36.
On to CAGAGTAACCATGGGGGCTCAGGGCCTCTC, for which the binding signal (log2 normalized intensity) is -1.04.
Under AGAATTTAAACCAAACAGAACAAAGTCCAG stands 3.46; under ATTTCTGTGGACTGCTCCAGTGGACATTGG, 2.99.
Under TGATAAGCAAGATGACTTTGGTCTAGACAC stands 0.829.
The value for ACTGTCCCAGCTGAGATTCAGAATAGTTAA was -0.894; that for TTCAAAGGAGTGTCTTTCTCCTTGAACACA was 0.849; that for AATCATGGGCCCACAGATGATCAAAGGTCA was 7.06.
Turning to GAAGATTTGCGGCCATCTAGCTACAGGAGA, the binding signal (log2 normalized intensity) was -1.17.
On to CTCCAGGGAGAAACCTGCCAGGTGGACCAA, for which the binding signal (log2 normalized intensity) was 0.783.
The value for AAGATATTATCTCTGTCTGTCAAGGCTTTT was 1.11; that for AGGTCGGTGGTATGTGTGTGCTTTAACAAG was 1.68.
In the case of GGCGGGGTTTTCGGTTTTCAAATGAACCCG, the binding signal (log2 normalized intensity) was found to be 2.96.
Under TTCTTGCTCTTTACCCCTGCAAGGATTGAT stands 1.98; under AGAAATCCACACAGCACTGACCTTTGAGAG, 4.92; under AGTAAATCTCACATTCGTTAACATCAGCTG, -0.325.
The value for TGGGCTCGGCGCTCCGCTTACTCGGCCTGG was -0.994; that for TCCCAGGATGAGGCCGTTCTAGCCCTTTTT was -0.918.
The value for CCAATTGACCCTATCCACATTCAGCCCACT was 0.683.
With ACATTCCAGGGAACAAGGGGTGGATCTCTG, the binding signal (log2 normalized intensity) was -1.18.
With TTGGGGGCCATGTCTCAGCCCAAGATCAAA, the binding signal (log2 normalized intensity) was -1.06.
Under CCTGGTGACCTTTGTTTGGTCAAATACCTA stands 2.9; under GCACAAGAGGGTGGGAGTTCAGGGGGTTGG, -1.18; under GACCTTTGCCCTCTGGCCCTTAAAGGCTTT, 6.99.
The value for CACACACACAGCTTGGAGCTCCTTGTGAGC was -1.19; that for TCACAGGGAATTTCCAAAGAGCAGCTAGCT was -1.12; that for TCTCTGGCATGTATTTATCAACATTCTTTC was 1.52.
Take CCTTTTATTCAGGAAGTCGCTTGCCAGTAT: the binding signal (log2 normalized intensity) is 1.3.
On to TTTTTGACTTACCATTTGCTGATAAGTAGG, for which the binding signal (log2 normalized intensity) was 0.249.
The value for CAGCCAGGGTCAGGAGAAGCAGAACAGGTA was -1.18.
Under CTGCTCATTTTTCCCCTGACAAGTATCTCG stands 1.77; under CACAGCAAGTAAATTCCGGGGCTGGAATTT, 1.13.
The value for GTCAAATCACTGAAGCGACCCCTCGAGGCA was 1.42.
In the case of AAAACAGGTGTTCTTTCCCTCCAGCCCACT, the binding signal (log2 normalized intensity) came out at 1.31.
Under TTCCTGAAGATCGCAGACTTTGGACTCTGC stands 7.83; under CTGATGAATAGAAAGAGGTCAATGTACTTA, 2.21; under TGGACCATGAGAAACATCCACATGTGGGTC, 0.676.
Under GTGTTTATCTTGTGGTTGGAATGTTTCTGG stands 2.68.
Under TTGAGAACCTCCCATCAGCTGGGCTTGTTC stands -0.781; under ACTTGGGGTTCTTGGATCCTCAGGGTTCAT, 2.49; under TCCAAAAGGGCAGCAGTAACCCCCCAGGAG, 3.7.
Take GCGGGCTGGGGGCTGGGCGCGGGATCCTCT: the binding signal (log2 normalized intensity) was -1.24.
Under ACTATCATACACTATTTTCCTAAATATGTT stands 0.801.
Under GGTCAAAGAGCAATCATCAAGGTGGTTTCA stands 1.71; under CCAGCCCAGGTGGCTGCATCCTTCTCCTCC, -1.11.
Under AGGTCAATGCCAGGACCCTGTGGGACTGGT stands -1.06.
GCAGAGTGGAGGCCAGCGCCAGGCTGGGGG: the binding signal (log2 normalized intensity) is -1.11.
As to TGATGAAGCCTATAGTGCTCCCTCCTGTGG, the binding signal (log2 normalized intensity) is -0.606.
Regarding CCATTTCACCTTTGCCCTGTCAGTCTCTCA, the binding signal (log2 normalized intensity) worked out at 4.05.
The value for ACTCAGTTATCAACCTTATCAGCAGGACAC was 0.893; that for GACTGGCATTCCCCTATGTCTAGGACTCTA was 0.945.
Under GGACTTTGGGCTGTGTTTTGCCCCTGCAGA stands 3.66; under TCTGTTCATTGATAAAGGGTTACAAACTTC, 0.913.
The value for GAGGGCATGTTGAGTGGAATATGAGGTCAG was 1.82; that for TTAGGAGGATGACAAAGAGCAAGTGACCCT was 3.83.
As to GAAACAGTCTGATTCTAGGGCCCATGCCCT, the binding signal (log2 normalized intensity) is 0.599.
The value for GAACCCCCAGGTCACCCACAACCTACCCTT was 4.35; that for CTTTGGCCGTGCATGCTTGGACTCTGAAGG was 3.14.
The value for CCCTGTTATTAGTCCAAGAGATTTCTACAG was -0.195.
